Results published in PubChem BioAssay AID894 (National Center for Advancing Translational Sciences (NCATS), 2007).
Hit rate of the full screen: of about 150,000 compounds, about 6,500 (4.3%) were called active. Inconclusive means that the source gave no clear call. Such entries were picked first, then a sample of the others. The call rests on the fitted dose curve; in most records, active means well fitted inhibition curve with a large enough effect (not every such curve was filed as active); inconclusive means small, poorly fitted or top-dose-only effect, or another doubt; inactive means no such curve, though single readings can be large or run the other way. No potency is given beside an inconclusive call; the fits are too rough.

Each compound was assayed against 15-hydroxyprostaglandin dehydrogenase [NAD(+)] (Homo sapiens) (UniProt P15428) (assay: qHTS Assay for Inhibitors of HPGD (15-Hydroxyprostaglandin Dehydrogenase)). Settings: purified HPGD, NADH fluorescence kinetic, PGE2 substrate; activity change, negative = inhibition: stronger effect = lower value.
Sequence of UniProt P15428 (P15428 whole entry, looked up): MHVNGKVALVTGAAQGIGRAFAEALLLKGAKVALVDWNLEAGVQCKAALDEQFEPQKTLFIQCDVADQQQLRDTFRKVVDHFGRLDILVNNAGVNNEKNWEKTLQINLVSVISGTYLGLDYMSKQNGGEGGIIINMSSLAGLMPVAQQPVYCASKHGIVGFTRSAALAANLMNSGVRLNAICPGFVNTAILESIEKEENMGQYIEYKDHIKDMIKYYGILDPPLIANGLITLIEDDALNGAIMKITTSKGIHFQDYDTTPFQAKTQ
Procedure, shortened: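 20 nM HPGD preincubated 15 min at room temperature with compound in 50 mM Tris-HCl pH 8, 0.01% Tween 20. Started with 1 mM NAD+ and 30 uM prostaglandin E2; NADH fluorescence (360/450 nm) read 5 times over 30-s intervals, last minus first.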
On the % scale 0 is the no-effect control and ±100 the full control effect; potency means the concentration at half of the fitted maximal effect; tags describe the fitted curve by direction and shape.

| Structure (SMILES) | Potency | activity change, negative = inhibition |
| --- | --- | --- |
| CCCCCC(=O)Nc1ccc(Cc2ccncc2)cc1 | inconclusive [inhibitor, single point] |  |
| O=C(O)c1ccccc1SCC(=O)N1CCCCC1 |  | inactive: -6.11% |
| CCN(CC)CCN1C(=O)c2ccccc2NC1c1cc(OC)c(OC)c(OC)c1 (stereo not drawn) | inconclusive [inhibitor, partial curve] |  |
| O=c1[nH]c2ccc(Cl)cc2c(-c2ccccc2)c1N1CCN(CCO)CC1 | inconclusive [inhibitor, partial curve] |  |
| CC1=C(C(=O)OCC2CCCO2)C(c2ccc(C)o2)C2=C(CC(c3ccc(N(C)C)cc3)CC2=O)N1 (stereo not drawn) |  | inactive: -8.45% |
| COc1cccc(/C=N/NC(=O)C(=O)NCc2ccco2)c1O |  | inactive: -7.59% |
| COC(=O)COc1cc(C)cc2oc(=O)c(CC(=O)OC)c(C)c12 | inconclusive [inhibitor, partial curve] |  |
| CCn1cc(C(=O)NCc2ccc3c(c2)OCO3)c(=O)c2cc(F)c(N3CCN(C(=O)c4ccco4)CC3)cc21 | inconclusive [inhibitor, partial curve] |  |
| O=C(c1ccc(COc2ccccc2Br)o1)N1N=C(C(F)F)CC1(O)C(F)F (stereo not drawn) |  | inactive: -7.21% |
| O=C(NCc1ccco1)c1nc2ccccc2s1 | inconclusive [inhibitor, single point] |  |
| CCCc1noc(-c2ccc(-c3ccccc3)cc2)n1 | inconclusive [inhibitor, partial curve] |  |
| c1ccc(Cn2nnc3c(N4CCN(Cc5ccc6c(c5)OCO6)CC4)ncnc32)cc1 | inconclusive [inhibitor, single point] |  |
| COc1cc(/C=C/C(=O)OCC(=O)Nc2ccc(S(=O)(=O)N3CCCC3)cc2)ccc1O | inconclusive [inhibitor, partial curve, poor fit] |  |
| Cc1ccc(S(=O)(=O)NCc2ccc(C(=O)NC3CC3)cc2)cc1 | inconclusive [inhibitor, partial curve] |  |
| COc1ccc(C2C3=C(CCCC3=O)Nc3c(-c4ccccc4)c(C)nn32)cc1 (stereo not drawn) | inconclusive [inhibitor, partial curve] |  |
| CCOc1ccc(-n2nc3c(=O)n(CCN4CCCCC4)nc(C)c3c2C)cc1 | inconclusive [inhibitor, partial curve] |  |
| COc1ccc(C(C)=O)cc1COC(=O)c1cccc(N(C)C)c1 | inconclusive [inhibitor, single point] |  |
| Cc1ccc(S(=O)(=O)NC(C(=O)Oc2cc3oc(=O)cc(C)c3cc2Cl)C(C)C)cc1 (stereo not drawn) | inconclusive [inhibitor, full curve] |  |
